According to PubChem BioAssay AID463173 (ICCB-Longwood Screening Facility, Harvard Medical School, 2010):
Screen size: about 52,000 compounds; about 1,700 (3.3%) were called active. Cut-off read from the data, not from the text of the source: active = survival mostly below about 52% (no sharp cut-off); inactive = mostly above about 56%. Some of the results follow.

test system: Wild type; experiment: growth inhibition of S. aureus wild type versus tarO mutant, primary screen, teichoic acid synthesis inhibitors, RN4220, OD600 (AID 463173); conditions: S. aureus RN4220 wild type/DeltatarO growth, OD600, 18 h, stronger effect = lower value, screened at 18.75 µg/mL (by protocol)

Compound	survival
O=C(NCCS(=O)(=O)N1CCN(c2ccccc2F)CC1)C1CC(=O)N(c2ccc(F)cc2)C1 (stereo not given)	inactive: 138%
COC(=O)C1=C(C)NC2=C(C(=O)c3ccccc32)C1c1ccc(O)c(OC)c1 (stereo not given)	inactive: 109%
Cc1ccc(S(=O)(=O)C(CNS(=O)(=O)c2ccc(F)c(C)c2)c2cccs2)cc1 (stereo not given)	inactive: 88%
N#CSc1ccc2nc(N)sc2c1	inactive: 93%
CCc1ccccc1N(CC)C(=O)Cn1nc(Cc2ccncc2)c2ccccc2c1=O	inactive: 91%
Cc1ccc(-n2cnc3cc(C(=O)NCCC4=CCCCC4)ccc32)cc1Cl	inactive: 101%
Cc1cccc(NC(=O)COc2ccc3oc4c(c3c2)CCCC4)c1	inactive: 48%
Cc1ccc(OCC(=O)Nc2cccc3ccc(C)nc23)c(C)c1	inactive: 70%
O=C(CCc1nc(-c2cccs2)no1)Nc1ccc([N+](=O)[O-])cc1	inactive: 81%
CC(C)OC(=O)CSc1nnnn1C	inactive: 93%
COc1ccc(CNC(=O)C(=O)NCC(c2cccs2)S(=O)(=O)c2cccs2)cc1 (stereo not given)	inactive: 68%
COc1ccc(Cl)cc1NC(=O)Cn1nc(C(F)(F)F)cc1C	inactive: 108%
Cn1c(/C(C#N)=C/c2ccc(C(F)(F)F)cc2)nc2ccccc21	inactive: 91%
CCOc1ccccc1NC(=O)Cn1nc(N2CCN(c3ccccc3)CC2)ccc1=O	inactive: 99%
O=C(NCc1ccccc1Cl)c1ccc(-n2cnc3cccnc32)cc1	inactive: 70%
CCC(NC(=O)Nc1cccc(C)c1)c1c(-n2cccc2)sc2c1CCN(C)C2 (stereo not given)	inactive: 78%
O=C(CCC1N=C2c3ccccc3N=C(SCC(=O)NCCc3ccccc3)N2C1=O)NCc1ccc(F)cc1 (stereo not given)	inactive: 65%
Cc1ccc(CNC(=O)CSCc2nc(-c3cccc(C)c3)oc2C)cc1	active: -1%
Cc1cn2c(=O)c(S(=O)(=O)NCc3ccc(F)cc3)c(C)nc2s1	inactive: 83%
CCOc1ccc(-c2nnc(SCC(=O)N(CC)c3cccc(C)c3)o2)cc1	inactive: 78%
O=C(Cn1c(=O)n(-c2ccccc2Cl)c(=O)c2sc3ccccc3c21)NC1CCCC1	inactive: 88%
CCCN(CCC)C(=O)Cn1c(=O)n(-c2ccc(Cl)c(Cl)c2)c(=O)c2c(C)c(C(=O)N(C)C)sc21	inactive: 82%
CCN(CC)S(=O)(=O)c1ccc(NC(=O)c2ccccc2)cc1	inactive: 104%
CCOc1ccc(OCC)c(NC(=O)C2CCCN(S(=O)(=O)c3ccc(C)cc3)C2)c1 (stereo not given)	inactive: 77%
COc1ccc(-c2c(C)nn3c(N4CCN(c5cc(Cl)ccc5C)CC4)cc(C)nc23)cc1OC	inactive: 81%
